Source: PubChem BioAssay AID1347417 (National Center for Advancing Translational Sciences (NCATS), 2020)
In all, about 120,000 compounds went through this assay and about 5,300 (4.4%) were called active. This list was built around the results that the source calls inconclusive (neither active nor inactive); the mix of calls is not that of the screen. The call rests on the fitted dose curve; in most records, active means well fitted inhibition curve with a large enough effect; inconclusive means small, poorly fitted or top-dose-only effect; inactive means no such curve, though single readings can be large or run the other way. Where the call is inconclusive, the potency comes from a doubtful curve fit.

Assay: qHTS Primary assay for Inhibitors of Plasmodium falciparum Dd2 growth in vitro; further: nearly all actives have a fitted effect of over 65% in size;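 on activity, negative = inhibition: plate controls were DMSO vehicle for no effect and reference drug for full effect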
Settings: P. falciparum Dd2 growth, SYBR Green, 72 h; activity, negative = inhibition: at 28.9 µM (top of the series) unless noted; series mostly up to 28.9 µM
In short: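 Infected erythrocytes (Dd2, 0.3% parasitemia, 2.5% hematocrit final) are added to compound in RPMI-1640/Albumax II medium, grown 72 h at 37C in low oxygen, then lysed with saponin/Triton-X containing SYBR Green and read by fluorescence.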
Potency means the concentration at half of the fitted maximal effect; tags describe the fitted curve by direction and shape.

Q: Which Potency does the source give for Cc1ccc(C(=O)Nc2ccccc2C(=O)O)cc1S(=O)(=O)N1CCCCCC1 here?
A: The Potency was inconclusive: 11.2 µM [inhibitor, single point].

Q: Which “activity, negative = inhibition” value does the source give for Cc1nnc(SCc2ccccc2Cl)c2cc3sccc3n12 here?
A: Its value is inactive: 22.7%.

Q: With CN(C(=O)Cn1cc(S(=O)(=O)N2CCN(c3ccccc3F)CC2)c2ccccc2c1=O)c1ccc(Cl)cc1 as the molecule, how does the Potency read?
A: The Potency was inconclusive: 17.8 µM [inhibitor, single point].

Q: For O=C(NCCCN1CCN(c2ccccc2F)CC1)c1cc2c(Cl)nc3ccccc3c2s1, which Potency is on record?
A: Its Potency is active: 2.82 µM.

Q: With CN(C)C(Cn1cc(-c2cncnc2)nn1)c1ccccc1Cl (stereo not drawn) as the molecule, how does the “activity, negative = inhibition” value read?
A: Its value is inactive: -17.4%.

Q: Which Potency does the source give for COc1ccc(-c2cc3nc(C)c(CCC(=O)Nc4cccc(C(F)(F)F)c4)c(C)n3n2)c(OC)c1 here?
A: Its Potency is inconclusive: 17.8 µM [inhibitor, single point].

Q: Which Potency does the source give for O=C1CC(c2ccccc2)N(Cc2ccncc2)CCCN(C(=O)CCc2ccccc2)CCN1 (stereo not drawn) here?
A: The Potency was inconclusive: 7.94 µM [inhibitor, partial curve, poor fit].

Q: Which Potency does the source give for CCOc1cc(C2NC(=O)c3c(sc4c3CCN(C)C4)N2)ccc1OC(=O)c1ccccc1Cl (stereo not drawn) here?
A: Its Potency is inconclusive: 0.158 µM [inhibitor, full curve, poor fit].

Q: Which Potency does the source give for O=C(NCCc1ccccn1)c1ccc(-c2nnc3ccc(NC(=O)C4CCC4)cn23)cc1 here?
A: The Potency was active: 0.562 µM.

Q: Which Potency does the source give for CC(C)(C)c1ccc(CCCc2nc(C3CCOC3)no2)cc1 (stereo not drawn) here?
A: Its Potency is inconclusive: 17.8 µM [inhibitor, single point].

Q: With Cc1ccc2[nH]c(C(=O)Nc3ccccc3)cc2c1 as the molecule, how does the activity, negative = inhibition read?
A: Its activity, negative = inhibition is inconclusive: -70.6% [inhibitor] [at 0.594 µM].

Q: Which “activity, negative = inhibition” value does the source give for COc1cccc(C(=O)NC2CCN(c3cc(-c4ccccc4)[nH]n3)CC2)c1OC here?
A: Its value is inactive: -6.86%.

Q: Which Potency does the source give for O=C(COc1ccc(F)cc1)Nc1ccc(-c2nnc3n2CCCC3)cc1 here?
A: The Potency was inconclusive: 5.62 µM [inhibitor, partial curve, poor fit].

Q: Which Potency does the source give for CCOc1ccc(NC(=O)c2cnn(-c3ccc(C)c(Cl)c3)c2C2CCNCC2)cc1 here?
A: The Potency was inconclusive: 10 µM [inhibitor, single point].

Q: With CN1CCN(CCCNC(=O)Cn2c(-c3cccs3)cc3cc(Cl)ccc32)CC1 as the molecule, how does the Potency read?
A: The Potency was active: 12.6 µM.

Q: Which Potency does the source give for Cc1ccc(CN2COc3cc(C)c4c(oc(=O)c5ccccc54)c3C2)cc1 here?
A: The Potency was active: 1.12 µM.

Q: Which “outcome” value does the source give for COc1ccccc1CN1CC(c2noc(-c3cc(C)cc(C)c3)n2)CC1=O (stereo not drawn) here?
A: Its value is “inactive”.

Q: For COc1ccc(CNC(=O)c2ccc(CSc3nc4ccncc4n3Cc3ccccc3F)cc2)cc1, which Potency is on record?
A: Its Potency is inconclusive: 10 µM [inhibitor, single point].

Q: For COc1ccc(CN2CCC(C3CCNC3)CC2)c(OC)c1 (stereo not drawn), which “activity, negative = inhibition” value is on record?
A: Its value is inactive: 11.9%.

Q: For C#CCNC(=O)[C@H]1C[C@@H](O)[C@H](O)[C@@H]2N=C(Nc3cccc4ccccc34)S[C@@H]21, which Potency is on record?
A: Its Potency is inconclusive: 3.98 µM [inhibitor, full curve, poor fit].

Q: Which Potency does the source give for CN(C)C[C@@H]1CN(C)C[C@H]1NC(=O)NCc1ccc(OC(F)(F)F)cc1 here?
A: Its Potency is inconclusive: 7.08 µM [inhibitor, partial curve, poor fit].

Q: Which Potency does the source give for CCC(CC)c1cc([C@H]2CN3CC[C@H]2C[C@@H]3CNC(=O)c2ccc(C)cc2)nc(-c2ccncc2)n1 here?
A: Its Potency is inconclusive: 1.58 µM [inhibitor, full curve, poor fit].

Q: With O=C(NCc1nncn1C1CCCCC1)C1CNCCO1 (stereo not drawn) as the molecule, how does the “activity, negative = inhibition” value read?
A: Its value is inactive: -9.2%.

Q: Which “activity, negative = inhibition” value does the source give for CCn1ncc(CN(C)C(=O)c2cc(COc3ccccc3)[nH]n2)c1C here?
A: Its value is inactive: -6.82%.

Q: For O=C(c1nc2ncccn2n1)N1CCCn2cc(-c3ccccc3)nc21, which Potency is on record?
A: The Potency was inconclusive: 11.2 µM [inhibitor, single point].

Q: With CCOc1cc(C(=O)N2CCN(c3cc(-c4cccs4)[nH]n3)CC2)cc(OCC)c1OCC as the molecule, how does the “outcome” value read?
A: Its value is “inactive”.

Q: Which Potency does the source give for COc1cccc(-c2csc(-c3c(N)c(C(=O)c4ccccc4)n4ccccc34)n2)c1 here?
A: The Potency was inconclusive: 10 µM [inhibitor, single point].

Q: For Cc1nc2c(C(=O)NCc3ccccc3Cl)cnn2c(C)c1Cc1ccccc1, which Potency is on record?
A: The Potency was inconclusive: 3.55 µM [inhibitor, partial curve].

Q: With COc1ccc(NC(=O)Cn2c(=O)n(Cc3ccccc3)c(=O)c3oc4ccccc4c32)cc1Cl as the molecule, how does the Potency read?
A: Its Potency is inconclusive: 10 µM [inhibitor, single point].

Q: For COc1cccc(CCC(=O)N2CCC3(CC2)N(c2ccccc2)C(=O)CS3(=O)=O)c1, which “outcome” value is on record?
A: Its value is “inactive”.

Q: With Cc1ccc(C)c(-n2cc(-c3ccccc3)nc2SCC(=O)Nc2ccccc2)c1 as the molecule, how does the Potency read?
A: Its Potency is inconclusive: 11.2 µM [inhibitor, single point].

Q: For CC1(C(=O)O)CCN(C(=O)C2CCCCC2)CC1, which “activity, negative = inhibition” value is on record?
A: Its value is inactive: 8.13% [at 44.1 µM].

Q: For O=C1Cc2c(-c3ccccc3Oc3ccccc3)n[nH]c2CN1CCc1ccncc1, which Potency is on record?
A: The Potency was inconclusive: 10 µM [inhibitor, partial curve].

Q: With O=C(Nc1ccc(-c2nnc3n2CCCC3)cc1)c1ccc2c(c1)OCO2 as the molecule, how does the Potency read?
A: The Potency was inconclusive: 4.47 µM [inhibitor, partial curve, poor fit].

Q: With CC(C)NC(=O)NC[C@H]1C[C@@H]2CCN1C[C@@H]2c1cc(C2CCCC2)nn1C as the molecule, how does the Potency read?
A: The Potency was inconclusive: 12.6 µM [inhibitor, partial curve, poor fit].

Q: For COc1cc(CN2C[C@@H]3C(=O)N(CCc4ccccc4)C(=O)[C@@H]3C2)cc(OC)c1, which “outcome” value is on record?
A: The value was “inactive”.

Q: Which Potency does the source give for Cc1ccc(C(=O)N2CCC(CCC(=O)NCCc3c[nH]c4ccccc34)CC2)cc1 here?
A: Its Potency is inconclusive: 17.8 µM [inhibitor, single point].

Q: With CN(CCc1noc(C2CN(Cc3ccc(F)c(F)c3)C2)n1)C(=O)C1CC1 as the molecule, how does the Potency read?
A: Its Potency is inconclusive: 11.2 µM [inhibitor, single point].

Q: With O=C1COc2ccc(-c3ccoc3)nc2CN1Cc1ccccc1 as the molecule, how does the Potency read?
A: The Potency was inconclusive: 5.01 µM [inhibitor, single point].

Q: For COC[C@H]1CCCN1[C@@H]1[C@H](O)[C@H](CO)O[C@@H]1CNS(=O)(=O)c1cccs1, which “activity, negative = inhibition” value is on record?
A: Its value is inactive: -13.3%.

Q: Which Potency does the source give for O=C1CS(=O)C2(CCN(S(=O)(=O)Cc3ccccc3)CC2)N1CC1CC1 (stereo not drawn) here?
A: The Potency was inconclusive: 10 µM [inhibitor, single point].

Q: With Nc1ccc2nc(-c3ccc(O)cc3)sc2c1 as the molecule, how does the Potency read?
A: The Potency was inconclusive: 11.2 µM [inhibitor, single point].

Q: With O=C(CC1CCCCC1)N1CCCC(c2noc(COc3ccccc3)n2)C1 (stereo not drawn) as the molecule, how does the Potency read?
A: The Potency was inconclusive: 8.91 µM [inhibitor, partial curve, poor fit].

Q: Which activity, negative = inhibition does the source give for Cc1ccc2scc(N3CCCCC3)c(=O)c2c1 here?
A: The activity, negative = inhibition was inconclusive: -32.7% [inhibitor] [at 0.594 µM].

Q: For COc1ccc(NC(=O)CC2C(=O)N(c3ccc(F)cc3)C(=O)N2CCc2sccc2C)cc1 (stereo not drawn), which “activity, negative = inhibition” value is on record?
A: The value was inactive: -9.54%.

Q: With CC1(c2ccccc2)N(Cc2ncccn2)C(=O)OC12CCN(Cc1cccc(O)c1)CC2 (stereo not drawn) as the molecule, how does the “outcome” value read?
A: Its value is “inactive”.

Q: With CCOC(=O)c1cc(-c2ccccc2)n(CCC(=O)Nc2cc(C)cc(C)c2)c1C as the molecule, how does the Potency read?
A: The Potency was active: 3.16 µM.

Q: With COc1ccc2nc3n(c2c1)[C@@H](CNCC(C)(C)C)COC3 as the molecule, how does the Potency read?
A: The Potency was inconclusive: 10 µM [inhibitor, partial curve, poor fit].

Q: With O=C(COc1ccc(F)cc1)N1CCN(c2cc(C(F)(F)F)ncn2)CC1 as the molecule, how does the Potency read?
A: The Potency was inconclusive: 20 µM [inhibitor, partial curve, poor fit].

Q: With COc1ccc(CN2CCc3nc(C(=O)NCCOc4ccccc4)oc3CC2)cn1 as the molecule, how does the “outcome” value read?
A: Its value is “inactive [at 44.1 µM]”.

Q: For O=C(NCc1ccc(Cl)nc1)c1cn2c(n1)CN(C(=O)c1ccccc1F)CC2, which “activity, negative = inhibition” value is on record?
A: Its value is inactive: 7.34%.

Q: For O=C1NCc2ccccc2CC12CCCCN2Cc1cccc(F)c1 (stereo not drawn), which “activity, negative = inhibition” value is on record?
A: Its value is inactive: -28.6%.

Q: Which “activity, negative = inhibition” value does the source give for O=C(O)CCc1nnc2cnc3ccccc3n12 here?
A: Its value is inactive: 12.3%.

Q: For O=C([C@H]1C[C@H](Oc2ccccc2)CN1C(=O)NCCc1ccccc1)N1CCOCC1, which “activity, negative = inhibition” value is on record?
A: The value was inactive: -24.4%.

Q: For O=C(NC1CC(c2nnc(CO)n2C2CC2)C1)c1csc(-c2ccccc2)n1 (stereo not drawn), which Potency is on record?
A: Its Potency is inconclusive: 20 µM [inhibitor, single point].

Q: For O=C(Nc1ccc([C@H]2OCC(=O)N(Cc3cccnc3)[C@@H]2CO)cc1)c1cc(F)cc(F)c1, which “activity, negative = inhibition” value is on record?
A: The value was inactive: -18.1%.

Q: With Cc1cc(-c2cc3c(cn2)CN(Cc2ccccc2F)CCN3)ccn1 as the molecule, how does the Potency read?
A: Its Potency is inconclusive: 31.6 µM [inhibitor, single point].

Q: For CCc1ccc(-n2c(=O)c3cccnc3n2CC(=O)Nc2cc(OC)ccc2OC)cc1, which activity, negative = inhibition is on record?
A: Its activity, negative = inhibition is inconclusive: -54.4% [inhibitor] [at 5.79 µM].

Q: For CCCC(=O)N1Cc2ccccc2CC2(CCCN2Cc2ccncc2)C1 (stereo not drawn), which Potency is on record?
A: Its Potency is active: 8.91 µM.

Q: For COc1cccc(-c2ncc(CNC(=O)[C@H]3CC[C@@H](N)C3)s2)c1, which “activity, negative = inhibition” value is on record?
A: Its value is inactive: 16.4%.

Q: With COc1cccc(C(=O)NCc2nnc3c(-c4nc(C(C)C)no4)cccn23)c1 as the molecule, how does the Potency read?
A: Its Potency is inconclusive: 7.94 µM [inhibitor, partial curve].

Q: For CCOC(=O)c1nc(Nc2ccc(C(=O)OC)cc2)c2ccccc2n1, which Potency is on record?
A: Its Potency is inconclusive: 10 µM [inhibitor, single point].

Q: With CCOC(=O)c1c(C)oc2nc(C)nc(NCc3cccc(Cl)c3)c12 as the molecule, how does the Potency read?
A: The Potency was inconclusive: 10 µM [inhibitor, single point].

Q: Which Potency does the source give for COc1ccc(-c2nnc(C[C@@H]3C[C@@H](C(C)C)[C@H](CNC(=O)c4ccc(F)cc4)C=C3C)o2)cc1 here?
A: The Potency was inconclusive: 3.16 µM [inhibitor, partial curve].

Q: For O=C1NCCCCCCN(C(=O)c2cccnc2)[C@H]2C[C@H](C(=O)N3CCc4ccccc4C3)C[C@@H]12, which Potency is on record?
A: The Potency was inconclusive: 5.01 µM [inhibitor, partial curve, poor fit].

Q: For CN(Cc1ccccc1Cl)C(=O)c1coc(COc2ccc3c(c2)OCO3)n1, which “activity, negative = inhibition” value is on record?
A: The value was inactive: 1.69%.

Q: Which “activity, negative = inhibition” value does the source give for O=C(Nc1cccc2ccccc12)O[C@@H]1CO[C@H]2[C@@H]1OC[C@@H]2Nc1nccc(-c2ccccc2)n1 here?
A: Its value is inactive: -13.3%.

Q: With CCC1Oc2ccc(NC(=O)c3ccccc3F)cc2CN(Cc2ccccc2F)C1=O (stereo not drawn) as the molecule, how does the Potency read?
A: The Potency was active: 5.62 µM.
